Consider 86 sequences from the supplement of paper PMC3334620.

In all, about 33,000 sequences were measured (“E-score (-0.5 to 0.5)”: median about -0.041, highest 2% from about 0.37 on). The list shows a part of the results.

The target of this test is T1, Ecm22 (UniProt Q05958).
T1 sequence: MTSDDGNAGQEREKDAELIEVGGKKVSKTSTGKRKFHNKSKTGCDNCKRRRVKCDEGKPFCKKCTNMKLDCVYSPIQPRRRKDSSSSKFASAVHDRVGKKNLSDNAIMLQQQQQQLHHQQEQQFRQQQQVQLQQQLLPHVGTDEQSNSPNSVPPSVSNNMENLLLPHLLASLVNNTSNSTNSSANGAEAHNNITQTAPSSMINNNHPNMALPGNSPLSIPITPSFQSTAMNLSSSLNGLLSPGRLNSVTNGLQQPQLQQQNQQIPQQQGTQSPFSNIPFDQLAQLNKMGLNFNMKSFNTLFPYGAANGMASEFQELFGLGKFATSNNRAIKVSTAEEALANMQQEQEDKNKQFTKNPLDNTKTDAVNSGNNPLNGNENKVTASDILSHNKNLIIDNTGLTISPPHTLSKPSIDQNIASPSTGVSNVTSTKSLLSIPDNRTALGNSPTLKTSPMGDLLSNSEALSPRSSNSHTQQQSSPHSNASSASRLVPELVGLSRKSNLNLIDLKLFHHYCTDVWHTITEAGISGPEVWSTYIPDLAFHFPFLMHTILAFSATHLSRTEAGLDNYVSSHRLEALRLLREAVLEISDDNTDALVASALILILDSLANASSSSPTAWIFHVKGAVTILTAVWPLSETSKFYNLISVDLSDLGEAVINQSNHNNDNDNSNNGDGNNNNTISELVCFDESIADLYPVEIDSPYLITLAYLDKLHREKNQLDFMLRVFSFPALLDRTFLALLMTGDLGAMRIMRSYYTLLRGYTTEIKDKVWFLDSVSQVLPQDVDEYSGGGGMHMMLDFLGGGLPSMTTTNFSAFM
Put plainly: PBM E-score (8-mer binding enrichment) (E-score (-0.5 to 0.5)); higher = stronger / more preferred TF binding; most listed sequences are background and not binding sites. The note with it: protein concentration: 200 nM; construct: GST-full length. The procedure, abridged:
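For each ungapped eight-base word taken together with its reverse complement, the Universal PBM Analysis Suite assigned an E-score. Binding data came from GST-tagged yeast transcription factors, applied at about 100-200 nM, on universal all-10-mer Agilent arrays made double-stranded by primer extension. Fluorescent anti-GST marked bound protein, and scans were normalised with masliner.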
Take GGGTTCAA: the “PBM E-score” value is -0.198.
For CTCTCCCA, the “PBM E-score” value is -0.217.
Next, GTTGGAGA: -0.0819.
Next, GTTGTGAA: -0.0354.
In the case of CTATTGTC, the “PBM E-score” value was -0.125.
Next, ACGGGAAT: 0.255.
Next, ACCAAGTA: 0.143.
As to GATGGAAA, the “PBM E-score” value was -0.0526.
Regarding TCCTCTCA, the “PBM E-score” value is -0.232.
Next, CTGTTCGC: 0.13.
GTTACTAA: the “PBM E-score” value worked out at 0.101.
Next, GCCCACCC: -0.1.
For the sequence CTGGGGTA, the “PBM E-score” value was -0.237.
Next, GTCGGGTA: 0.228.
Next, GGGTCTAA: -0.254; CTTAGATA: -0.195.
Regarding ATACCGTA, the “PBM E-score” value came to 0.295.
ATGGCCAT: the “PBM E-score” value is -0.237.
Next, AATCGCCT: 0.0224.
Next, AACGCTCG: 0.247; CCAAACTC: -0.0279.
Regarding GATGGGGC, the “PBM E-score” value was -0.174.
Next, CGACCTAC: 0.0692.
Regarding ACCCGCGC, the “PBM E-score” value was -0.0239.
Take GGCCTACA: the “PBM E-score” value was -0.101.
Take CCGTACAG: the “PBM E-score” value amounted to 0.388.
With CGGGGAAC, the “PBM E-score” value was 0.198.
Next, AAAATCGC: 0.127.
AACTATAC: the “PBM E-score” value was determined as 0.257.
Consider AACGTTAC, for which the “PBM E-score” value stood at 0.136.
In the case of GAAGATCA, the “PBM E-score” value was 0.142.
Next, GCGATGCA: -0.0198; CGAACAGA: 0.101.
Next, ACCAAACC: -0.123.
Turning to GTCGCGAA, the “PBM E-score” value was 0.26.
On to ACCGACAT, for which the “PBM E-score” value worked out at 0.217.
Take TATCCGAA: the “PBM E-score” value is 0.261.
Next, CCGGGTTC: 0.136; GAGAGCCA: -0.0861; AAGATCAC: 0.0218.
Next, CCAGGCTC: -0.096; GCCAGGTA: -0.0152.
Turning to AAGGGCTA, the “PBM E-score” value is -0.189.
Next, CGAGGATC: 0.23.
Consider CCTGGGAG, for which the “PBM E-score” value was -0.267.
Next, GGGTGACC: -0.191; CAAAACAA: -0.34; GACATTCC: -0.0859.
Next, CACTCATG: -0.207.
Next, ACGCACAG: 0.0346; CTTGCACC: -0.0766.
For CCGCCCAC, the “PBM E-score” value was -0.0401.
Take AGGCGCTA: the “PBM E-score” value is -0.112.
As for CACCGTTA, the “PBM E-score” value came out at 0.0997.
Next, AGGCTAAA: -0.111.
Next, AAATATTG: 0.102.
Next, CCGGCAAG: -0.0541; GTCTATGA: -0.0211; GGCGACAC: -0.00378.
With CGTCTCGA, the “PBM E-score” value worked out at 0.122.
Next, AAGGATCC: -0.155.
Consider AATGATTA, for which the “PBM E-score” value is -0.0356.
Next, AGTTCATC: -0.237; AAGGATGT: -0.19; GGCGGGTA: -0.0663.
For CAGTTGGC, the “PBM E-score” value is -0.247.
As for ACGCGATA, the “PBM E-score” value was 0.182.
Next, GGCCATTA: -0.168; CGTGTACC: 0.132; CACATACG: 0.335.
As to GTTGCCAA, the “PBM E-score” value was 0.0517.
Next, AATATCGG: 0.191; CGGTCTGA: -0.0653.
Next, AATCGCAG: -0.0371.
Next, CGAGGAAC: 0.348.
With ATTCTGGA, the “PBM E-score” value is -0.0488.
With ACTATTAA, the “PBM E-score” value turned out to be 0.00323.
Next, AGAAATGC: -0.0506; AAGCAGCA: -0.0456.
As to ATTAGTCA, the “PBM E-score” value was 0.00238.
Next, GTGCCCCA: -0.209.
Next, AATTTCTA: 0.0435; AAACCCGG: 0.0318; TCAGACAA: -0.173.
Next, CAGATAAA: -0.0725; GGGCGATA: -0.16.
